Results on four substances are retold here after article PMC4349318.

The chains behind the UniProt entries cited, without tags or fusion partners.
UniProt O96020: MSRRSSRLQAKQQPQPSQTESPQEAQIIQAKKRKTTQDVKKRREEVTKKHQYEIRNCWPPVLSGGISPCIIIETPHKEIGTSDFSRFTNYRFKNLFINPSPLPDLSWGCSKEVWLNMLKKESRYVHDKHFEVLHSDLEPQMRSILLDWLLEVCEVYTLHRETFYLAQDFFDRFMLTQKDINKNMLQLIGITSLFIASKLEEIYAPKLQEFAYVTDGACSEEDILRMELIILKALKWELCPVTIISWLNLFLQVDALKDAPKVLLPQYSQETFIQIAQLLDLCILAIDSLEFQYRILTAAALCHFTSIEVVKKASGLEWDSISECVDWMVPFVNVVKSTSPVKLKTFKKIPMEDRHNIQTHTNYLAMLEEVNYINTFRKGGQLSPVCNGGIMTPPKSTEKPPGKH
UniProt P24864: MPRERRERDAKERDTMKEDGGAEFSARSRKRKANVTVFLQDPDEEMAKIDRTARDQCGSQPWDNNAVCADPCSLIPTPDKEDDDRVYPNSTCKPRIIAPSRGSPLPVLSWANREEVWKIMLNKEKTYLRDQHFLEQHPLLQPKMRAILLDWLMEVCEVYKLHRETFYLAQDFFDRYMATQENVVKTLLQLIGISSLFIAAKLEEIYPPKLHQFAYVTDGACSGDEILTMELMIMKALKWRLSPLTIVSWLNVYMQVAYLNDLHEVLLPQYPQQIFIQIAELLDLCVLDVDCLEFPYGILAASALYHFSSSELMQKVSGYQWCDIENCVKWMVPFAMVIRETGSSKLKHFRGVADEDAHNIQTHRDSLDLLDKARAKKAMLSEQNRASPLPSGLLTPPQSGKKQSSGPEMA
UniProt Q13435: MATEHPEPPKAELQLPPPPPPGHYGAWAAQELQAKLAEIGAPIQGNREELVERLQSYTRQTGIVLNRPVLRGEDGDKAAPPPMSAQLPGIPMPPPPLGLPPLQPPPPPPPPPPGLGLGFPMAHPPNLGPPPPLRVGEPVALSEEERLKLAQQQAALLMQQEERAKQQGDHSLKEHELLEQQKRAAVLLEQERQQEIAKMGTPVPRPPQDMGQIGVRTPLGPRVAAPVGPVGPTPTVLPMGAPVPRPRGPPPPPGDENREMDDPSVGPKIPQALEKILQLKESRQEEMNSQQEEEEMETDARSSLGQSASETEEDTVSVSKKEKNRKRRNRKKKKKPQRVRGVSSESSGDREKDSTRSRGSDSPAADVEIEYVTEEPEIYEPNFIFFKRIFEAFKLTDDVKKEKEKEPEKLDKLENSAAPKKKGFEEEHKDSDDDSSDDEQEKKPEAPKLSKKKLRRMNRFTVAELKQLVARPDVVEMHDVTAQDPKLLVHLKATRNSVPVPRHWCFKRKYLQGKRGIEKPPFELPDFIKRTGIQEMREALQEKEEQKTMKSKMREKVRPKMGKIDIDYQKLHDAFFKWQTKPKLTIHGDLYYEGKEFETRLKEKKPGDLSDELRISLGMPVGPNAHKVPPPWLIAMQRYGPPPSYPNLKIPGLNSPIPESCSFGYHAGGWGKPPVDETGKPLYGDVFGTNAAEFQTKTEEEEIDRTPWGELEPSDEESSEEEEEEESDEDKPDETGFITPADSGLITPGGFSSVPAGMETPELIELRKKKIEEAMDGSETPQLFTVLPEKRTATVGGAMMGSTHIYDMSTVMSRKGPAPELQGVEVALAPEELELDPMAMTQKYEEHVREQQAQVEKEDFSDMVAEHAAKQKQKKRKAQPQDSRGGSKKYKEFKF
UniProt P38936: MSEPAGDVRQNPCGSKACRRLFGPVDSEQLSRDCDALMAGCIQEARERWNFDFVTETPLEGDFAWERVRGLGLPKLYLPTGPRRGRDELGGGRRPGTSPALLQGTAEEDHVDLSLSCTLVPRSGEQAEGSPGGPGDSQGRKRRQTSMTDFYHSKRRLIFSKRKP
UniProt P46527: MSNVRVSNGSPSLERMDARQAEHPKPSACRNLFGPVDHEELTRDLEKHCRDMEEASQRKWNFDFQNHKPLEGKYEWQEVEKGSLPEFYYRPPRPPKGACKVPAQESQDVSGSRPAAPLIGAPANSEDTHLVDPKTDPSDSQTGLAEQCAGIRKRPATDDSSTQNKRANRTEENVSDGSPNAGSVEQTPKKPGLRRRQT

Results are given in words; binding and its absence hold for the method and conditions named. In cells and extracts the contact can be indirect. Some binding calls cover weakened binding; strength is not graded here.

The target of assay [1] is cyclin E2 (human (endogenous in T-47D)) (UniProt O96020). The experiment in a line: co-IP; lysates of T-47D cells immunoprecipitated (cyclin E1 C-19, cyclin E2 Epitomics, CDK2 C-19, non-immune IgG) and western blotted with the indicated antibodies; endogenous proteins. For orientation: Immunoblotting shows a protein as a band on a membrane.
The target in assay [2] is cyclin E1 (human (endogenous in T-47D)) (UniProt P24864). The assay is described as above.
For assay [3], the target named is T1, NPAT (human (endogenous in T-47D)) (UniProt Q14207).
T1 sequence: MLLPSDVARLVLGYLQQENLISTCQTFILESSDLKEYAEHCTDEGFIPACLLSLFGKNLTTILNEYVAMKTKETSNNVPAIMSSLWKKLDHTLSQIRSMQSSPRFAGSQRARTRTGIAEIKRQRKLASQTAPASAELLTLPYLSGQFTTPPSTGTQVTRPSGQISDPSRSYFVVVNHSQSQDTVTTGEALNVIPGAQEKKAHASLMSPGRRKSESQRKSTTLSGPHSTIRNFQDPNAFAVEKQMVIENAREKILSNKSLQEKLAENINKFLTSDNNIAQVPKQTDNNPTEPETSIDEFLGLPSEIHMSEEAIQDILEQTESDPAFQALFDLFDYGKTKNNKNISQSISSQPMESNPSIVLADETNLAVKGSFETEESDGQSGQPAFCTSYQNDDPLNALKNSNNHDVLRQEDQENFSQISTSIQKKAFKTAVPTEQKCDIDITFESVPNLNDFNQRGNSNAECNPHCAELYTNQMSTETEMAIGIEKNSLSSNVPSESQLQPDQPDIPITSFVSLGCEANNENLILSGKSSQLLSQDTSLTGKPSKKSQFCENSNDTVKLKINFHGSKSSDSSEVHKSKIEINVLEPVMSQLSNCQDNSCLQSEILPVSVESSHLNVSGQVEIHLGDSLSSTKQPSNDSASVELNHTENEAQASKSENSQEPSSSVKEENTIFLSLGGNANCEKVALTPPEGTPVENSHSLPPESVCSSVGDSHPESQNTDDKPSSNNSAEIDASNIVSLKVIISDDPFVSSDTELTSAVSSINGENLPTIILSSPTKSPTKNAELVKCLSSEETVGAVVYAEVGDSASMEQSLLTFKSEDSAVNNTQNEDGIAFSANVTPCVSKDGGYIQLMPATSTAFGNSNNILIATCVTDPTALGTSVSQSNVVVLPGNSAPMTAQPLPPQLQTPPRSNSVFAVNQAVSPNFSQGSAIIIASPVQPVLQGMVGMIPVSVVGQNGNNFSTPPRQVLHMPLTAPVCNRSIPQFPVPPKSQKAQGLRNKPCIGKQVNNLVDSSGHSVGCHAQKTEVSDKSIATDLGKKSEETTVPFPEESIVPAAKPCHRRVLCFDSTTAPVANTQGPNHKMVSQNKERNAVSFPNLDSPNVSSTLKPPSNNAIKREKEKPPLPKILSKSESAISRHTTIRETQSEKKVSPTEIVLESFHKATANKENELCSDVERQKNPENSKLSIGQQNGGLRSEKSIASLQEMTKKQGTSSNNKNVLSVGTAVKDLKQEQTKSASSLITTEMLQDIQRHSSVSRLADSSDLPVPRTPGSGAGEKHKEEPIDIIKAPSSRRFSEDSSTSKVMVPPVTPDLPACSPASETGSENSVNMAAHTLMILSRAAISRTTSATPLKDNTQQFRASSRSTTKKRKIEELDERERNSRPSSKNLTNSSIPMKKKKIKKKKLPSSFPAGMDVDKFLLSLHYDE
The assay is described as follows: proximity ligation; Duolink in situ Proximity Ligation Assay on PFA-fixed T-47D cells; detects two antibodies within 40 nm; foci counted from 10-15 cells per antibody pair; NPAT/αGST as negative control.

On to SAP 145 (from UniProt Q13435 1-895), for which the binding entry in assay [1] and in assay [2] was “binds” each time.
For the substance cyclin E1 (from UniProt P24864 1-410), the binding entry in assay [3] is listed as “no binding”.
As for “p21^Waf1/Cip1 (from UniProt P38936 1-164)”, the binding result in assay [1] is “binds”.
Regarding p27^Kip1 (from UniProt P46527 1-198), the binding result in assay [1] is given as “binds”.
